The campaign covered roughly 43,000 compounds. About 200 (0.47%) were called active. Inconclusive results (about 12%) are left out. Calls come from the whole dose curve; as a rule, active = well fitted cell-killing curve with a large enough effect; inconclusive = small, poorly fitted or top-dose-only effect, or effect the other way; inactive = flat fitted curve, though single readings scatter. Some of the results follow.
% is set by controls: 0 for no effect and ±100 for the full control effect.

The nature of this assay: Cell viability qHTS assay in S16 Pmp22-F2sN cells. Note: nearly all actives have a fitted effect of over 65% in size. As to conditions: S16 Pmp22-F2sN Schwann cells (luciferase reporters placed in the Pmp22 gene) viability, CellTiter-Glo, 24 h; series mostly up to 57.5 µM; activity change, negative = cytotoxicity: at the top concentration. A digest of the protocol: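 S16 Schwann cells carrying the Pmp22-F2sN reporter, seeded in 1536-well format, were exposed to library compounds for 24 h at 37C. Viability was read as CellTiter-Glo luminescence after 15 min at room temperature.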
With `COc1ccc(NC(=O)C(NS(=O)(=O)c2cccc3nsnc23)C(C)C)cc1OC` (stereo unspecified), the “activity change, negative = cytotoxicity” value is inactive: -1.88%.
Turning to `COc1ccc(-c2nc(S(=O)(=O)c3ccccc3)c(N3CCC(C)CC3)o2)cc1`, the “activity change, negative = cytotoxicity” value is inactive: -1.84%.
To `CN1C(=O)c2ccccc2Sc2ccc(NC(=O)N3CCN(c4ccc(F)cc4)CC3)cc21` belongs inactive: -27.9%; to `COc1ccc(C(=O)NCCc2csc(-c3ccc(Cl)cc3)n2)c(OC)c1`, inactive: 4.31%; to `CSc1ccc(CCNC(=O)CN2C(=O)COc3ccc(S(=O)(=O)N4CCCCCC4)cc32)cc1`, inactive: 2.73%.
For `Cc1ccc(Cl)cc1-n1c(SCC(=O)NCc2ccccc2)nc2n[nH]c(C)c2c1=N`, the “activity change, negative = cytotoxicity” value was inactive: -12.2%.
In the case of `COc1ccc(CCNC(=O)CN(c2ccccc2)S(=O)(=O)N(C)C)cc1`, the “activity change, negative = cytotoxicity” value is inactive: 0.332%.
To `COc1ccccc1-c1nn(CCC(=O)Nc2ccccc2)c2nc(C)cc(C)c12` belongs inactive: 7.47%; to `Cc1ccc2nc(-c3ccc(C)s3)c(Nc3ccc4c(c3)OCCO4)n2c1`, inactive: 17%.
In the case of `O=C(Nc1ccc(F)c(F)c1)C(c1ccccc1)N1Cc2ccccc2C1=O` (stereo unspecified), the “activity change, negative = cytotoxicity” value was inactive: 2.17%.
To `COc1ccccc1C(=O)Nc1ccc(-c2cc(C(F)(F)F)nn2-c2ccccc2)cc1` belongs inactive: -14.5%; to `CCOc1ccccc1NC(=O)Cn1c(=O)n(CCCC(=O)NCc2ccc(C)cc2)c(=O)c2ccccc21`, inactive: 26.2%.
The value for `Cc1ccc(C(=O)N2CCN(CCc3ccncc3)CC2)cc1` was inactive: 11.7%; that for `Cc1nn(C(C)C(=O)NCc2ccco2)c(=O)c2nn(-c3ccccc3)c(C)c12` (stereo unspecified) was inactive: -2.85%; that for `COc1ccccc1OCC(=O)NCCS(=O)(=O)N1CCN(c2ccccc2OC)CC1` was inactive: -0.203%.
Consider `Cc1cccc2sc(N(Cc3cccnc3)C(=O)c3ccco3)nc12`, for which the “activity change, negative = cytotoxicity” value was inactive: -2.65%.
As to `CCC(C(=O)NCCC(C)C)N(C(=O)Cn1nnc(-c2ccc(C)cc2)n1)c1cccc(O)c1` (stereo unspecified), the “activity change, negative = cytotoxicity” value is inactive: -28%.
As to `COc1ccc(Cl)cc1NC(=O)Cn1c(=O)n(Cc2ccc(F)cc2)c(=O)c2cccnc21`, the “activity change, negative = cytotoxicity” value is inactive: 15.5%.
In the case of `Cc1ccccc1OCCSc1nnc(-c2cccs2)o1`, the “activity change, negative = cytotoxicity” value was inactive: 2.98%.
As to `CCOc1ccc(NC(=O)C(C)n2c(=O)cc(-c3ccccc3)c3c(C)nn(C)c32)cc1` (stereo unspecified), the “activity change, negative = cytotoxicity” value is inactive: 14.3%.
As for `COc1ccccc1N1CCN(C(=O)Cn2c(=O)nc(-c3ccccc3)c3ccccc32)CC1`, the “activity change, negative = cytotoxicity” value is inactive: -20.2%.
In the case of `O=C(CN1C(=O)COc2ccc(S(=O)(=O)NC3CCCC3)cc21)NCc1ccccc1Cl`, the “activity change, negative = cytotoxicity” value was inactive: 3.49%.
On to `CCOC(=O)c1ccc(NC(=O)C2=C(C)C(=O)OC23CCN(C(C)=O)CC3)cc1`, for which the “activity change, negative = cytotoxicity” value was inactive: 0.818%.
The value for `Cc1ccc(Cl)cc1NC(=O)CCn1cnc2ccccc2c1=O` was inactive: -1.42%; that for `COc1cc(Nc2nc3ccc(Cl)cc3nc2-n2nc(C)cc2C)cc(OC)c1` was inactive: 4.42%.
The value for `CCOC(=O)c1cccc(NC(=O)c2cc(C)nc3c2c(C)nn3-c2ccc(C)cc2)c1` was inactive: -2.28%; that for `Cc1cc(C)cc(NC(=O)C(=O)NCC(c2cccnc2)N2CCOCC2)c1` (stereo unspecified) was inactive: -11.1%; that for `CCc1cccc(C)c1NC(=O)CSc1n[nH]c(-c2ccccc2)n1` was inactive: -9.76%.
The value for `Cn1ncc2c(Nc3cccc(C#N)c3)ncnc21` was inactive: -6.71%; that for `O=C(CCn1c(=O)c2cccn2c2cccnc21)NCc1cccc(Br)c1` was inactive: 13.9%; that for `CC(=O)c1cc2c(cc1N/C(=N/S(=O)(=O)c1ccc(C)cc1)c1ccc(Cl)cc1)OCO2` was inactive: -6.62%.
As to `Cc1ccc2c(=O)cc(C(=O)Nc3ccc(S(=O)(=O)N4CCCC(C)C4)cc3)oc2c1C` (stereo unspecified), the “activity change, negative = cytotoxicity” value was inactive: 2.84%.
To `CCOc1ccc(NC(=O)c2oc3ccccc3c2NC(=O)C(C)Oc2ccccc2)cc1` (stereo unspecified) belongs inactive: 3.08%; to `Cc1ccc(C)c(CN2C(=O)c3ccccc3S(=O)(=O)c3ccc(C(=O)N4CCN(Cc5ccccc5)CC4)cc32)c1`, inactive: -9.89%; to `Cc1cccc(C)c1NC(=O)CSc1nccn1C`, inactive: 5.55%.
In the case of `CC(C)Cn1c(SCc2cccc(F)c2)nc2ccsc2c1=O`, the “activity change, negative = cytotoxicity” value is inactive: 3.32%.
`CCOCCCn1c(SCC(=O)Nc2ccccc2OC)nc2c(oc3ccccc32)c1=O`: the “activity change, negative = cytotoxicity” value was inactive: -10.5%.
To `COc1ccccc1C1=Nn2c(nc3sc(C(=O)Nc4ccccc4Cl)c(C)c3c2=O)SC1` belongs inactive: 3.23%.
Consider `Cc1ccc(C)c(C(=O)N2CCC(c3nc4c(nnn4Cc4ccccc4)c(=O)[nH]3)CC2)c1`, for which the “activity change, negative = cytotoxicity” value was inactive: 12.2%.
`CC(NC(=O)c1c(O)nc2ccccn2c1=O)c1ccccc1` (stereo unspecified): the “activity change, negative = cytotoxicity” value was inactive: -13.6%.
The value for `CCOc1ccccc1N1CC(c2nc3ccccc3n2CCCCOc2ccccc2)CC1=O` (stereo unspecified) was inactive: 0.0605%.
In the case of `COc1ccc(OC)c(C2CC(=O)Nc3ccc4ccccc4c32)c1` (stereo unspecified), the “activity change, negative = cytotoxicity” value is inactive: -22.9%.
In the case of `COc1ccc(-c2cn3c(n2)sc2cc(C(=O)NCc4ccccc4)ccc23)cc1`, the “activity change, negative = cytotoxicity” value was inactive: -2.84%.
The value for `COc1ccc(Cc2nc3ccc(C(=O)NCCc4ccc(Cl)cc4)cc3o2)cc1` was inactive: -3.03%.
To `CCN(C(=O)CCS(=O)(=O)c1cc(Br)cc2c1N(C(=O)C1CC1)CC2)c1cccc(C)c1` belongs inactive: -5.89%.
For `O=C(NC1CC(=O)N(c2ccc(Cl)cc2)C1)C1CCCCC1` (stereo unspecified), the “activity change, negative = cytotoxicity” value was inactive: 6.53%.
The value for `CCOc1ccc(Nc2oc(/C=C/c3cc(OC)c(OC)c(OC)c3)nc2C#N)cc1` was inactive: -1.31%; that for `COc1ccc(NC(=O)CN(C)S(=O)(=O)c2cnc[nH]2)cc1` was inactive: -3.13%.
On to `CCOc1ccc(NC(=O)CSc2nc3ccccc3c(=O)n2CCC(=O)NC2CCCCC2)cc1`, for which the “activity change, negative = cytotoxicity” value is inactive: -17.7%.
On to `O=C(COC(=O)c1cc(-c2cccs2)nc2ccccc12)c1ccc(Cl)cc1`, for which the “activity change, negative = cytotoxicity” value is inactive: 9.61%.
Take `COc1cc(C(=O)NCCSc2c(C)[nH]c3ccccc23)cc(OC)c1OC`: the “activity change, negative = cytotoxicity” value is inactive: 0.232%.
For `O=C(O)CSc1nc2ccccc2nc1N1CCCCC1`, the “activity change, negative = cytotoxicity” value is inactive: -4.72%.
Turning to `COc1ccc(CCNC(=O)CSc2cn(CCNC(=O)c3ccc(OC)c(OC)c3)c3ccccc23)cc1OC`, the “activity change, negative = cytotoxicity” value was inactive: 8.36%.
The value for `COC(=O)c1c(NC(=O)/C(C#N)=C/c2ccc(OC)cc2)sc2c1C(C(=O)OC)CC2` (stereo unspecified) was inactive: 5.28%.
Take `CCc1ccccc1NC(=O)[C@H](Cc1ccccc1)N1Cc2ccccc2C1=O`: the “activity change, negative = cytotoxicity” value was inactive: 4.17%.
On to `COc1ccc(-c2noc(C3CC(=O)N(c4ccc5c(c4)OCCO5)C3)n2)c(OC)c1` (stereo unspecified), for which the “activity change, negative = cytotoxicity” value is inactive: -14.3%.
As to `CCOC(=O)c1sc(NC(=O)c2nc3nc(C)cc(C(F)F)n3n2)c(C(=O)OC)c1C`, the “activity change, negative = cytotoxicity” value is inactive: 10.3%.
As to `CCC(C)NC(=O)Cn1cnc2sc(C)c(S(=O)(=O)N3CCN(c4ccccc4OC)CC3)c2c1=O` (stereo unspecified), the “activity change, negative = cytotoxicity” value was inactive: 7.73%.
Regarding `Cc1c(C(=O)Nc2cccc(Cl)c2)oc2ccc(S(=O)(=O)N3CCOCC3)cc12`, the “activity change, negative = cytotoxicity” value is inactive: 1.88%.
As for `COc1cccc(NC(=O)N2CCC(CN3CCOCC3)CC2)c1`, the “activity change, negative = cytotoxicity” value is inactive: -11.7%.
As to `CCc1ccccc1NC(=O)Cn1c(=O)ccc2cc(S(=O)(=O)N3CCC(C)CC3)ccc21`, the “activity change, negative = cytotoxicity” value was inactive: 1.51%.

The values are drawn from PubChem BioAssay AID1508642 (National Center for Advancing Translational Sciences (NCATS), 2021).
